# Where “and” joins values, the source holds several entries; their conditions need not be identical. Identical values can stand only once. Among all 390,000 compounds or so, about 4,000 (1%) were called active. Inconclusive means that the source gave no clear call. Such entries were picked first, then a sample of the others. Calls follow the shape of the dose curve; as a rule, active = well fitted inhibition curve with a large enough effect; inconclusive = small, poorly fitted or top-dose-only effect; inactive = no such curve, though single readings can be large or run the other way. Potencies beside an inconclusive call are fits to weak or partial responses and may not hold up.
# Molecular target: Thioredoxin reductase 1, cytoplasmic (Rattus norvegicus) (UniProt O89049)
# Experiment: qHTS Assay for Inhibitors of Mammalian Selenoprotein Thioredoxin Reductase 1 (TrxR1): qHTS; also: nearly all actives have a fitted effect of over 65% in size
# Settings: recombinant rTrxR1, NADPH fluorescence consumption, selenite substrate; series mostly up to 114 µM
# Procedure, shortened: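 Rat TrxR1 (90 nM in the dispensed reagent) was pre-reduced with 400 uM NADPH for 5 min at room temperature, then incubated with compound for 15 min. After 400 uM selenite was added, NADPH fluorescence (Ex 340/Em 450 nm) was followed for 8 min.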
# Potency is read from the fitted curve at half-maximal effect; tags tell the direction and shape of the fitted curve.
# UniProt O89049, sequence (O89049 whole entry, looked up): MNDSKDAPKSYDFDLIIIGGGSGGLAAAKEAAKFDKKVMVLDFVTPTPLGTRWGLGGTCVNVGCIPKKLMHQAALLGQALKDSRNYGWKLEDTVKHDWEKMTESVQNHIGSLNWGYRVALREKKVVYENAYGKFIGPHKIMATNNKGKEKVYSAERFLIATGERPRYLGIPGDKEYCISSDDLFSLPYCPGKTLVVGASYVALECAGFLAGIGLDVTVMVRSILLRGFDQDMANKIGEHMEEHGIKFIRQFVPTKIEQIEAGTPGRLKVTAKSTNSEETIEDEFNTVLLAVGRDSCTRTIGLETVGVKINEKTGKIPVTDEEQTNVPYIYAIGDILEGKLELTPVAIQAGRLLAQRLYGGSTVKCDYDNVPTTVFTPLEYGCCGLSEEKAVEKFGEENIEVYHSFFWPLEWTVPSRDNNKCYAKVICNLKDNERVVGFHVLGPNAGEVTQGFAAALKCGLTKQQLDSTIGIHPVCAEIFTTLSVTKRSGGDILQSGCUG
row,Structure (SMILES),Potency
1,CC(=O)c1ccc(-n2c(C)ccc2-c2ccccc2)cc1,"inconclusive: 15.8 µM [inhibitor, full curve]"
2,CCOC(=O)c1c(-c2ccco2)csc1NC(=O)CSc1nnc(N)s1,"inconclusive: 63.1 µM [inhibitor, single point]"
3,O=C(O)C1CC=CCC1C(=O)Nc1cccnc1 (stereo unspecified),"inconclusive: 1.78 µM [inhibitor, partial curve, poor fit]"
4,Cc1ccc(N2C(=O)C(Cl)=C(NCCO)C2=O)c(C)c1,"inconclusive: 70.8 µM [inhibitor, partial curve]"
5,COC(=O)CCCC1=CC2=C(c3ccccc3)C(=O)C(C)(OC(=O)C3CCCC3)C(=O)C2=CN1C1CCCC1 (stereo unspecified),"inconclusive: 70.8 µM [inhibitor, partial curve]"
6,O=C(CCCn1c(=O)c2sccc2n(CC(=O)OCc2ccccc2)c1=O)NCc1ccco1,"inconclusive: 22.4 µM [inhibitor, single point]"
7,O=C(CCN1CCCCC1)c1ccc2c(c1)OCO2,"inconclusive: 0.316 µM [inhibitor, full curve, poor fit]"
8,O=C(COC(=O)/C=C/c1ccccc1[N+](=O)[O-])Nc1ccc2[nH]c(=O)[nH]c2c1,inactive
9,COc1ccc(NC(=O)CC2C(=O)N(c3ccc(OC)cc3)C(=S)N2NC(=O)c2cccc(F)c2)cc1 (stereo unspecified),inactive
10,O=C(Nc1ccccc1N1CCOCC1)c1cc2ccccc2o1,inactive
11,CCOC(=O)c1ccc(NC(=O)CC2C(=O)N(c3ccc(F)cc3)C(=O)N2Cc2ccc3c(c2)OCO3)cc1 (stereo unspecified),inactive
12,Cc1ccc2c(c1)C1(C(=O)N2C)N2CC3(C)CN1CC(C)(C2)C3=O (stereo unspecified),inactive
13,CNc1ccccc(-c2ccc3cc4c(cc3n2)OCO4)c1=O,"inconclusive: 56.2 µM [inhibitor, single point]"
14,N=c1n(CCN2CCOCC2)c2ccccc2n1CC(=O)c1cccc([N+](=O)[O-])c1,inactive
15,CCOC(=O)c1c(N)sc(N)c1C(=O)OCC,inactive
16,Cn1c(SCC(=O)c2cccs2)nnc1-c1ccco1,"inconclusive: 35.5 µM [inhibitor, single point]"
17,O=C(Oc1cncc(Cl)c1)c1ccco1,"inconclusive: 56.2 µM [inhibitor, single point]"
18,Cc1cc(C)c(NC(=O)c2cc3c(=O)n4ccccc4nc3n2C)c(C)c1,inactive
19,CC(C)c1ccc(S(=O)(=O)Nc2ccc3oc4c(c3c2)C(=O)CC(C)(C)C4)cc1,inactive
20,CCOC(=O)Cn1c(=O)n(C2CCCCC2)c2nc(-c3ccc(Cl)cc3)nc(C(N)=O)c21,inactive
21,Cc1cc(NC(=O)c2sc(Nc3ccc(F)cc3)nc2N)no1,"inconclusive: 79.4 µM [inhibitor, partial curve, poor fit]"
22,O=C(COc1ccc2c3c(c(=O)oc2c1)CCC3)Nc1ccc(CN2CCOCC2)cc1,"inconclusive: 89.1 µM [inhibitor, partial curve, poor fit]"

row,Structure (SMILES),Potency
1,CCNc1nc(NCC)nc(SCC(C)=O)n1,"inconclusive: 39.8 µM [inhibitor, single point]"
2,CCOC(=O)C(=Cc1ccc(-n2cncn2)cc1)C(=O)OCC,active: 22.4 µM
3,O=C(CN(Cc1cccs1)C(=O)CSc1nnc(COc2ccccc2)o1)NC1CCCC1,"inconclusive: 22.4 µM [inhibitor, single point]"
4,Cc1ccc2nc(C)cc(C(=O)OCC(=O)c3ccc(Cl)c([N+](=O)[O-])c3)c2c1,"inconclusive: 25.1 µM [inhibitor, partial curve, poor fit]"
5,COc1cc(C)c(NC(=S)Nc2ccc(Cl)c(Cl)c2)cc1OC,"inconclusive: 17.8 µM [inhibitor, full curve, poor fit]"
6,O=C(COC(=O)c1ccccc1C(=O)c1ccc(Cl)c([N+](=O)[O-])c1)NC1CCCCCC1,"inconclusive: 4.47 µM [inhibitor, full curve, poor fit]"
7,CC1CCN(C(=O)COC(=O)c2cccc(S(=O)(=O)N(C)c3ccccc3)c2)CC1,"inconclusive: 0.141 µM [inhibitor, full curve, poor fit]"
8,COc1ccc(Br)c2oc(S)cc(=O)c12,"inconclusive: 15.8 µM [inhibitor, partial curve]"
9,CCOc1ccc(CC(=O)NNC(=S)Nc2ccccc2)cc1Br,"inconclusive: 10 µM [inhibitor, single point]"
10,COc1ccc(C(=O)NNC(=S)NC(=O)C(C)(C)C)cc1,"inconclusive: 35.5 µM [inhibitor, partial curve]"
11,COc1ccc(NC(=O)CSc2oc(-c3ccco3)nc2S(=O)(=O)c2ccc(Br)cc2)c(OC)c1,"inconclusive: 39.8 µM [inhibitor, partial curve, poor fit]"
12,COc1ccc(-c2cc(C(=O)NCc3ccc(F)cc3)c3c(-c4ccc(F)cc4)[nH]nc3n2)cc1OC,inactive
13,COC(=O)c1c(NS(C)(=O)=O)sc2c1CCCC2,"inconclusive: 70.8 µM [inhibitor, single point]"
14,CNC(=S)N/N=C/c1ccc(OCC(=O)Nc2c(C)cc(C)cc2C)c(OC)c1,"inconclusive: 39.8 µM [inhibitor, single point]"
15,CC(C)CN(C(=O)CSc1nc(-c2ccccc2)cn1N)c1c(N)n(Cc2ccccc2)c(=O)[nH]c1=O,inactive
16,CC(C)CC(=O)NC(=S)Nc1ccccc1C(F)(F)F,"inconclusive: 15.8 µM [inhibitor, full curve, poor fit]"
17,CCCn1cnc2c(Sc3c([N+](=O)[O-])ncn3C)nc(N)nc21,active: 3.16 µM
18,O=S(=O)(c1ccc(-c2cn3ccccc3n2)cc1)N1CCOCC1,"inconclusive: 100 µM [inhibitor, single point]"
19,COc1ccc(CNCc2cccc(OC)c2OC)cc1Br,"inconclusive: 79.4 µM [inhibitor, single point]"
20,CC/C(O)=C1\C(=O)CC(C)(C)CC1=Nc1ccccc1C,inactive
21,S=c1nc[nH]c2nc[nH]c12,"inactive and inconclusive: 79.4 µM [inhibitor, single point]"
22,COc1cc2c(cc1OC)C(COc1cccc(C(F)(F)F)c1)NCC2 (stereo unspecified),"inconclusive: 44.7 µM [inhibitor, partial curve]"

row,Structure (SMILES),Potency
1,O=C(N/N=C/c1ccc([N+](=O)[O-])o1)c1ccc2c(c1)OCO2,"inconclusive: 20 µM [inhibitor, full curve]"
2,CCOC(=O)CC1c2cc(OCC)c(OCC)cc2CCN1C(=O)Nc1cccc(Cl)c1 (stereo unspecified),inactive
3,O=C(CCSc1nc(-c2ccco2)cc(C(F)(F)F)n1)N1CCN(c2ccccn2)CC1,"inconclusive: 25.1 µM [inhibitor, single point]"
4,O=C(Cn1c(=O)n(-c2ccc(F)c(Cl)c2)c(=O)c2sc3ccccc3c21)NC1CCCC1,inactive
5,O=C(c1ccc(S(=O)(=O)c2ccccc2Cl)c([N+](=O)[O-])c1)N1CCN(Cc2ccccc2)CC1,"inconclusive: 10 µM [inhibitor, partial curve, poor fit]"
6,CC(C)CSc1oc(-c2ccco2)nc1S(=O)(=O)c1ccccc1,inactive
7,Cc1cccc(N=Cc2[nH]c3ccc(Br)c(Cl)c3c2O)c1,"inconclusive: 50.1 µM [inhibitor, partial curve, poor fit]"
8,CCn1c(CC(=O)Nc2ccccc2F)nnc1SCC(=O)N1CCOCC1,"inconclusive: 89.1 µM [inhibitor, single point]"
9,CC1CN(C(=O)CCC(=O)NCc2ccc(F)cc2)c2cc(Cl)ccc2O1 (stereo unspecified),inactive
10,CC1CCc2c(sc3nc(C(C)(C)C)nc(N4CCN(C(=O)CCl)CC4)c23)C1 (stereo unspecified),"inconclusive: 28.2 µM [inhibitor, partial curve]"
11,CCCC(=Nc1ccc(N)cc1)C1=C(O)C(C(=O)OC)C(C)(C)CC1=O (stereo unspecified),"inconclusive: 28.2 µM [inhibitor, partial curve]"
12,COC(=O)C1=C(C)N(c2ccccc2)C(=S)NC1c1ccccc1C(F)(F)F (stereo unspecified),inactive
13,COC(=O)C(NC(C)=O)(Nc1sc2c(c1C(N)=O)CCCC2)C(F)(F)F (stereo unspecified),"inconclusive: 39.8 µM [inhibitor, partial curve, poor fit]"
14,CCOC(=O)c1ccccc1NC(=O)c1sc2nc3n(c(=O)c2c1C)CCCC3,"inconclusive: 50.1 µM [inhibitor, partial curve]"
15,COc1ccc(-c2ccc(CCC(=O)O)n2-c2ccccc2OC)cc1,"inconclusive: 50.1 µM [inhibitor, partial curve]"
16,Cc1cc(C)cc(N(CC(=O)NC2CCCC2)C(=O)CCC(=O)Nc2nc(C)cs2)c1,"inconclusive: 89.1 µM [inhibitor, single point]"
17,CCN1CCN(c2cc(=O)n(Cc3ccc(F)cc3)c(=O)[nH]2)CC1,"inconclusive: 56.2 µM [inhibitor, partial curve]"
18,CC(C)CNC(=O)c1cc(-c2ccco2)on1,"inconclusive: 17.8 µM [inhibitor, full curve, poor fit]"
19,CC(c1ccc(Cl)cc1)n1c(-c2ccc3ccccc3n2)n[nH]c1=S (stereo unspecified),"inconclusive: 1.41 µM [inhibitor, partial curve, poor fit]"
20,CC(=O)c1ccccc1NC(=O)COC(=O)/C(=C/c1ccccc1)n1nnnc1C,"inconclusive: 56.2 µM [inhibitor, single point]"
21,CC(C)c1cccc(-c2ccc3c(c2)S(=O)(=O)c2cccc(C(=O)NCc4ccco4)c2C3=O)c1,"inconclusive: 79.4 µM [inhibitor, partial curve]"
22,Cc1nc2ccc(NC(=S)NCCCO)cc2nc1C,inactive
